Laboratory results: the supplement of paper PMC8728848
The other results are listed elsewhere or left out.

Tests used:
Test in all cases: glycan array binding signal (z-score within array); higher = stronger binding
Conditions in all cases: glycan notation: IUPAC condensed, linker removed
[1] = molecular target: Fuc(a1-2)Gal(b1-4)GlcNAc(b1-3)Gal(b1-4)GlcNAc(b1-2)Man(a1-3)[Fuc(a1-2)Gal(b1-4)GlcNAc(b1-3)Gal(b1-4)GlcNAc(b1-2)Man(a1-6)]Man(b1-4)GlcNAc(b1-4)GlcNAc
In short: (§1)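 Negative Z-scores can be read as non-binding. The Z-score is calculated within each array and then averaged across arrays of one protein sequence at different concentrations or buffers and across linkers. Arrays, 3228 in all, were curated from the Consortium for Functional Glycomics database and kept only where the protein sequence was available.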

[2] = molecular target: Fuc(a1-2)Gal(b1-4)GlcNAc(b1-3)Gal(b1-4)GlcNAc(b1-3)Gal(b1-4)GlcNAc
In short: as §1

[3] = molecular target: Fuc(a1-2)Gal(b1-4)GlcNAc(b1-3)GalNAc
In short: as §1

[4] = molecular target: Fuc(a1-2)Gal(b1-4)GlcNAc(b1-3)[Fuc(a1-2)Gal(b1-4)GlcNAc(b1-6)]GalNAc
In short: as §1

[5] = molecular target: Fuc(a1-2)Gal(b1-4)GlcNAc(b1-3)[Fuc(a1-3)[Gal(b1-4)]GlcNAc(b1-6)]Gal(b1-4)Glc
In short: as §1

[6] = molecular target: Fuc(a1-2)Gal(b1-4)GlcNAc(b1-6)GalNAc
In short: as §1

[7] = molecular target: Fuc(a1-2)Gal(b1-4)GlcNAc6S
In short: as §1

[8] = molecular target: Fuc(a1-2)Gal(b1-4)[Fuc(a1-3)]GlcNAc
In short: as §1

[9] = molecular target: Fuc(a1-2)Gal(b1-4)[Fuc(a1-3)]GlcNAc(b1-2)Man(a1-3)[Fuc(a1-2)Gal(b1-4)[Fuc(a1-3)]GlcNAc(b1-2)Man(a1-6)]Man(b1-4)GlcNAc(b1-4)[Fuc(a1-6)]GlcNAc
In short: as §1

[10] = molecular target: Fuc(a1-2)Gal(b1-4)[Fuc(a1-3)]GlcNAc(b1-2)[Fuc(a1-2)Gal(b1-4)[Fuc(a1-3)]GlcNAc(b1-4)]Man(a1-3)[Fuc(a1-2)Gal(b1-4)[Fuc(a1-3)]GlcNAc(b1-2)Man(a1-6)]Man(b1-4)GlcNAc(b1-4)GlcNAc
In short: as §1

[11] = molecular target: Fuc(a1-2)Gal(b1-4)[Fuc(a1-3)]GlcNAc(b1-3)Gal(b1-4)[Fuc(a1-3)]GlcNAc
In short: as §1

[12] = molecular target: Fuc(a1-2)Gal(b1-4)[Fuc(a1-3)]GlcNAc(b1-3)Gal(b1-4)[Fuc(a1-3)]GlcNAc(b1-3)Gal(b1-4)[Fuc(a1-3)]GlcNAc
In short: as §1

[13] = molecular target: Fuc(a1-2)Gal(b1-4)[Fuc(a1-3)]GlcNAc(b1-3)GalNAc
In short: as §1

[14] = molecular target: Fuc(a1-2)Gal(b1-4)[Fuc(a1-3)]GlcNAc(b1-3)[Neu5Ac(a2-6)Gal(b1-4)GlcNAc(b1-6)]Gal(b1-4)Glc
In short: as §1

[15] = molecular target: Fuc(a1-2)Gal3S(b1-4)GlcNAc
In short: as §1

[16] = molecular target: Fuc(a1-2)Gal6S(b1-3)GlcNAc
In short: as §1

[17] = molecular target: Fuc(a1-2)Gal6S(b1-3)GlcNAc6S
In short: as §1

Fuc(a1-2)Gal6S(b1-4)Glc = molecular target: Fuc(a1-2)Gal6S(b1-4)Glc
In short: as §1

[18] = molecular target: Fuc(a1-2)Gal6S(b1-4)Glc6S
In short: as §1

Fuc(a1-2)GlcNAc = molecular target: Fuc(a1-2)GlcNAc
In short: as §1

Fuc(a1-2)[Gal(a1-3)]Gal = molecular target: Fuc(a1-2)[Gal(a1-3)]Gal
In short: as §1

[19] = molecular target: Fuc(a1-2)[Gal(a1-3)]Gal(b1-3)GalNAc
In short: as §1

[20] = molecular target: Fuc(a1-2)[Gal(a1-3)]Gal(b1-3)GalNAc(b1-3)Gal(a1-4)Gal(b1-4)Glc
In short: as §1

[21] = molecular target: Fuc(a1-2)[Gal(a1-3)]Gal(b1-3)GlcNAc
In short: as §1

[22] = molecular target: Fuc(a1-2)[Gal(a1-3)]Gal(b1-3)GlcNAc(b1-2)Man(a1-3)[Fuc(a1-2)[Gal(a1-3)]Gal(b1-3)GlcNAc(b1-2)Man(a1-6)]Man(b1-4)GlcNAc(b1-4)GlcNAc
In short: as §1

[23] = molecular target: Fuc(a1-2)[Gal(a1-3)]Gal(b1-3)GlcNAc(b1-2)Man(a1-3)[Fuc(a1-2)[Gal(a1-3)]Gal(b1-3)GlcNAc(b1-2)Man(a1-6)]Man(b1-4)GlcNAc(b1-4)[Fuc(a1-6)]GlcNAc
In short: as §1

[24] = molecular target: Fuc(a1-2)[Gal(a1-3)]Gal(b1-3)GlcNAc(b1-3)GalNAc
In short: as §1

[25] = molecular target: Fuc(a1-2)[Gal(a1-3)]Gal(b1-3)GlcNAc(b1-6)GalNAc
In short: as §1

[26] = molecular target: Fuc(a1-2)[Gal(a1-3)]Gal(b1-4)Glc
In short: as §1

[27] = molecular target: Fuc(a1-2)[Gal(a1-3)]Gal(b1-4)GlcNAc
In short: as §1

B1: MAA (Maackia amurensis), P0DKL3 (protein)
chain: MATSNSKPTQVLLATFLTFFFLLLNNVNSSDELSFTINNFVPNEADLLFQGEASVSSTGVLQLTRVENGQPQKYSVGRALYAAPVRIWDNTTGSVASFSTSFTFVVKAPNPDITSDGLAFYLAPPDSQIPSGSVSKYLGLFNNSNSDSSNQIVAVELDTYFAHSYDPWDPNYRHIGIDVNGIESIKTVQWDWINGGVAFATITYLAPNKTLIASLVYPSNQTTFSVAASVDLKEILPEWVRVGFSAATGYPTEVETHDVLSWSFTSTLEANCDAATENNVHIARYTA
- glycan array binding signal (z-score) [1]: -0.113
- glycan array binding signal (z-score) [2]: -0.196
- glycan array binding signal (z-score) [3]: -0.193
- glycan array binding signal (z-score) [4]: -0.264
- glycan array binding signal (z-score) [5]: -0.132
- glycan array binding signal (z-score) [6]: -0.214
- glycan array binding signal (z-score) [7]: -0.225
- glycan array binding signal (z-score) [8]: -0.161
- glycan array binding signal (z-score) [9]: -0.211
- glycan array binding signal (z-score) [10]: -0.128
- glycan array binding signal (z-score) [11]: -0.122
- glycan array binding signal (z-score) [12]: -0.059
- glycan array binding signal (z-score) [13]: 0.506
- glycan array binding signal (z-score) [14]: -0.23
- glycan array binding signal (z-score) [15]: -0.223
- glycan array binding signal (z-score) [16]: -0.348
- glycan array binding signal (z-score) [17]: -0.391
- glycan array binding signal (z-score) (Fuc(a1-2)Gal6S(b1-4)Glc): -0.187
- glycan array binding signal (z-score) [18]: -0.191
- glycan array binding signal (z-score) (Fuc(a1-2)GlcNAc): -0.214
- glycan array binding signal (z-score) (Fuc(a1-2)[Gal(a1-3)]Gal): -0.152
- glycan array binding signal (z-score) [19]: -0.207
- glycan array binding signal (z-score) [20]: -0.232
- glycan array binding signal (z-score) [21]: -0.153
- glycan array binding signal (z-score) [22]: -0.258
- glycan array binding signal (z-score) [23]: -0.172
- glycan array binding signal (z-score) [24]: -0.241
- glycan array binding signal (z-score) [25]: -0.253
- glycan array binding signal (z-score) [26]: -0.094
- glycan array binding signal (z-score) [27]: -0.238
